The values below come from PMC12689633.

No constants are given. Whether binding was seen depends on the method and setting. Binding seen in cells or lysates may run through a third protein.

For the experiment, the target named is T1, p53-binding protein 1 (53BP1) (human (endogenous in RPE1)), Q12888.
T1 chain: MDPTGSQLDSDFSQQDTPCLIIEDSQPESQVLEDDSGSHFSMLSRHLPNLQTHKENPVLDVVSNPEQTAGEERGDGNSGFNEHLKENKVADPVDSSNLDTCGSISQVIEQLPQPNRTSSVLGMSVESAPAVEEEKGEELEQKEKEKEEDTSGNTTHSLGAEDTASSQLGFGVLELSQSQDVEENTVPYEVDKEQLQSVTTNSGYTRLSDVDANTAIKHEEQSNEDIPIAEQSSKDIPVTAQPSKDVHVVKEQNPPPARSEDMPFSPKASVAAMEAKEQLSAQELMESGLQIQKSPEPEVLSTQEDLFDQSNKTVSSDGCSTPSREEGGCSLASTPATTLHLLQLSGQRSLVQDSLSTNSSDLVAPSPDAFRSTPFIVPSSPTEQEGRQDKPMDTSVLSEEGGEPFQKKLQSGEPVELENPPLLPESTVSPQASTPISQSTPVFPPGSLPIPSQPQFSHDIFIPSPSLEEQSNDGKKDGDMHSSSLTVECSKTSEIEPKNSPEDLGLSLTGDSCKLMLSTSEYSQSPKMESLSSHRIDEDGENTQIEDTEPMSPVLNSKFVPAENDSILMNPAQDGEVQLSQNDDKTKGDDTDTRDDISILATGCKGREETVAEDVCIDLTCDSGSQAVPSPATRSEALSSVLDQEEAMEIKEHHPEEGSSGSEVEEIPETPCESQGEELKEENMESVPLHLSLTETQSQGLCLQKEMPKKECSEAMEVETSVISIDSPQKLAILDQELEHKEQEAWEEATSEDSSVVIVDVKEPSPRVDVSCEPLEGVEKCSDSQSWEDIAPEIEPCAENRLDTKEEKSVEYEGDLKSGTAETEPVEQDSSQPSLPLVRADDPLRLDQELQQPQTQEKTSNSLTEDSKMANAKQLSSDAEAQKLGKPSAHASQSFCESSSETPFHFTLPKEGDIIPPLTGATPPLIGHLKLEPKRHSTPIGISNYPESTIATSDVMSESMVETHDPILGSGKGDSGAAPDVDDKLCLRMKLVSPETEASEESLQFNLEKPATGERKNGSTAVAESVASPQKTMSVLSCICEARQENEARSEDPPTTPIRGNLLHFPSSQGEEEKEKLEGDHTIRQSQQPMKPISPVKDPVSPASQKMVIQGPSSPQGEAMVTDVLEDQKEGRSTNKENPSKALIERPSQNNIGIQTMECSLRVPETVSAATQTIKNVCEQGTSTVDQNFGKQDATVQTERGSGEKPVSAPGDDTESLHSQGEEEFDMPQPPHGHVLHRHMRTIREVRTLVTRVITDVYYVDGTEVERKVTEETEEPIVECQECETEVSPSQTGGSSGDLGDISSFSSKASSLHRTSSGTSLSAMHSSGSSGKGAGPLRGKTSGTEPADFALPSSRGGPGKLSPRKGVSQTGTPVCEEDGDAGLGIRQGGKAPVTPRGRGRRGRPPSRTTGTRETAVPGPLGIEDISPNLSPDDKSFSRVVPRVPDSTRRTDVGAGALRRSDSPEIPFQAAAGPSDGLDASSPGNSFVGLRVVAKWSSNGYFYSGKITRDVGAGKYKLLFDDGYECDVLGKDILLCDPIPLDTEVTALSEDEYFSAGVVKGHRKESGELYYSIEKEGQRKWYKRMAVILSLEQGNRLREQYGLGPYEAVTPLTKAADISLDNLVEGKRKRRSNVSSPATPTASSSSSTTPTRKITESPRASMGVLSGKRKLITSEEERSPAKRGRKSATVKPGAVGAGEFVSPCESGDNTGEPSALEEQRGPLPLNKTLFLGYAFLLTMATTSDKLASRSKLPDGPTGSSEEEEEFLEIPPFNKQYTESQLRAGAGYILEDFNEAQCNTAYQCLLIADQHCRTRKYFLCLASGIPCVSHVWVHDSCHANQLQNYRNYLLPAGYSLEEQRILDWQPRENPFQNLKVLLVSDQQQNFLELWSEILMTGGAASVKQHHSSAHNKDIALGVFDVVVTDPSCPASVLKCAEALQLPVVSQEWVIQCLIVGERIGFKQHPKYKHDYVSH
Put plainly: co-IP; anti-53BP1 antibody and Protein A magnetic beads, 1-2 mg lysate of RPE1 or USP28∆ RPE1 cells with transgenes, arrested in mitosis with nocodazole (100 ng/ml, 8 or 16 h), in some panels also released 6 h into G1; 20 mM Tris-HCl pH 7.5, 50 mM NaCl, 0.5% Triton X-100, 5 mM EGTA, 1 mM DTT, 2 mM MgCl2, 4 °C; blots for USP28 or FLAG and p53. Particulars: remark: other sources report otherwise.

B1: USP28^hIF1 (human isoform 1) transgene, Q96RU2-1 1-1077 (protein)
chain: MTAELQQDDAAGAADGHGSSCQMLLNQLREITGIQDPSFLHEALKASNGDITQAVSLLTDERVKEPSQDTVATEPSEVEGSAANKEVLAKVIDLTHDNKDDLQAAIALSLLESPKIQADGRDLNRMHEATSAETKRSKRKRCEVWGENPNPNDWRRVDGWPVGLKNVGNTCWFSAVIQSLFQLPEFRRLVLSYSLPQNVLENCRSHTEKRNIMFMQELQYLFALMMGSNRKFVDPSAALDLLKGAFRSSEEQQQDVSEFTHKLLDWLEDAFQLAVNVNSPRNKSENPMVQLFYGTFLTEGVREGKPFCNNETFGQYPLQVNGYRNLDECLEGAMVEGDVELLPSDHSVKYGQERWFTKLPPVLTFELSRFEFNQSLGQPEKIHNKLEFPQIIYMDRYMYRSKELIRNKRECIRKLKEEIKILQQKLERYVKYGSGPARFPLPDMLKYVIEFASTKPASESCPPESDTHMTLPLSSVHCSVSDQTSKESTSTESSSQDVESTFSSPEDSLPKSKPLTSSRSSMEMPSQPAPRTVTDEEINFVKTCLQRWRSEIEQDIQDLKTCIASTTQTIEQMYCDPLLRQVPYRLHAVLVHEGQANAGHYWAYIYNQPRQSWLKYNDISVTESSWEEVERDSYGGLRNVSAYCLMYINDKLPYFNAEAAPTESDQMSEVEALSVELKHYIQEDNWRFEQEVEEWEEEQSCKIPQMESSTNSSSQDYSTSQEPSVASSHGVRCLSSEHAVIVKEQTAQAIANTARAYEKSGVEAALSEVMLSPAMQGVILAIAKARQTFDRDGSEAGLIKAFHEEYSRLYQLAKETPTSHSDPRLQHVLVYFFQNEAPKRVVERTLLEQFADKNLSYDERSISIMKVAQAKLKEIGPDDMNMEEYKKWHEDYSLFRKVSVYLLTGLELYQKGKYQEALSYLVYAYQSNAALLMKGPRRGVKESVIALYRRKCLLELNAKAASLFETNDDHSVTEGINVMNELIIPCIHLIINNDISKDDLDAIEVMRNHWCSYLGQDIAENLQLCLGEFLPRLLDPSAEIIVLKEPPTIRPNSPYDLCSRFAAVMESIQGVSTVTVK
Consider B1, for which the binding entry is reported as “no binding”.
